Results: the supplement of paper PMC4967469
Lines with a small IC50 respond at low doses; a fit beyond the top or the lowest dose is shown as a bound at that dose. For AUC the same curve is integrated over the 256-fold range of doses and scaled to a fraction; the more sensitive the line, the further below 1. For some assays here: Any top dose called inferred was calculated from the reported fits. For some assays here: An entry number marks a drug with two screens in the source, which often give different values.

Key:
Assay in all cases: Viability of human cancer cell lines after 72 h of drug (GDSC screen)
[1] = compound: NC(=O)Nc1sc(-c2ccc(F)cc2)cc1C(N)=O [TPCA-1]; conditions: top dose 20 µM
Protocol: (§1)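 Human cancer cell lines in 384-well plates, medium with 10% serum, drug for 72 h over a 256-fold dose range (nine 2-fold or five 4-fold steps up to the top dose). Adherent lines were fixed and stained with the nucleic acid dye Syto60, suspension lines read with resazurin; signal relative to control wells, capped at 0 and 100%. One two-parameter sigmoid per drug and line, fitted in a mixed model over all curves with the slope shared within a line.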

[2] = compound: C/C(=C\c1csc(C)n1)[C@@H]1C[C@@H]2O[C@]2(C)CCC[C@H](C)[C@H](O)[C@@H](C)C(=O)C(C)(C)[C@@H](O)CC(=O)O1 [Epothilone B]; conditions: top dose 0.032 µM; top dose inferred
Protocol: as §1

[3] = compound: C[C@@H](N)c1ccc(C(=O)Nc2ccnc3[nH]ccc23)cc1 [Y-39983]; conditions: top dose 20 µM; top dose inferred
Protocol: as §1

[4] = compound: CC(C)CC(=O)Nc1n[nH]c2c1CN(C(=O)C1CCN(C)CC1)C2(C)C [PHA-793887]; conditions: top dose 10.24 µM
Protocol: as §1

[5] = compound: CCCS(=O)(=O)Nc1ccc(F)c(C(=O)c2c[nH]c3ncc(Cl)cc23)c1F [PLX4720]; conditions: top dose 10 µM
Protocol: as §1

[6] = screen: GDSC drug entry 1371, top dose inferred

## RPMI-2650 (head and neck, adherent)
[1]
  AUC: 0.841
  IC50: 15.6 µM
[2]
  AUC: 0.524
  IC50: 0.00234 µM
[3]
  AUC: 0.885
  IC50: > 20 µM
[4]
  AUC: 0.821
  IC50: 6.54 µM
[5]; screen: GDSC drug entry 1036
  AUC: 0.942
  IC50: > 10 µM
[5]; [6]
  AUC: 0.974
  IC50: > 10 µM

## RPMI-7951 (melanoma, adherent)
[1]
  AUC: 0.922
  IC50: > 20 µM
[2]
  AUC: 0.416
  IC50: 0.00118 µM
[3]
  AUC: 0.889
  IC50: > 20 µM
[4]
  AUC: 0.775
  IC50: 3.93 µM
[5]; screen: GDSC drug entry 1036
  AUC: 0.88
  IC50: 9.84 µM
[5]; [6]
  AUC: 0.965
  IC50: > 10 µM

## RT4 (bladder, adherent)
[1]
  AUC: 0.465
  IC50: 0.995 µM
[2]
  AUC: 0.909
  IC50: > 0.032 µM
[3]
  AUC: 0.963
  IC50: > 20 µM
[4]
  AUC: 0.919
  IC50: > 10.2 µM
[5]; screen: GDSC drug entry 1036
  AUC: 0.965
  IC50: > 10 µM
[5]; [6]
  AUC: 0.986
  IC50: > 10 µM

## RT-112 (bladder, adherent)
[1]
  AUC: 0.757
  IC50: 7.35 µM
[2]
  AUC: 0.365
  IC50: 0.000824 µM
[3]
  AUC: 0.848
  IC50: 16.6 µM
[4]
  AUC: 0.804
  IC50: 5.58 µM
[5]; [6]
  AUC: 0.982
  IC50: > 10 µM

## RVH-421 (melanoma, adherent)
[1]
  AUC: 0.837
  IC50: > 20 µM
[2]
  AUC: 0.773
  IC50: 0.0173 µM
[3]
  AUC: 0.922
  IC50: > 20 µM
[4]
  AUC: 0.978
  IC50: > 10.2 µM
[5]; screen: GDSC drug entry 1036
  AUC: 0.543
  IC50: 0.853 µM
[5]; [6]
  AUC: 0.73
  IC50: 3.66 µM

## SAS (head and neck, adherent)
[1]
  AUC: 0.783
  IC50: 9.45 µM
[2]
  AUC: 0.934
  IC50: > 0.032 µM
[3]
  AUC: 0.948
  IC50: > 20 µM
[4]
  AUC: 0.678
  IC50: 2.14 µM
[5]; screen: GDSC drug entry 1036
  AUC: 0.968
  IC50: > 10 µM
[5]; [6]
  AUC: 0.965
  IC50: > 10 µM

## SAT (head and neck, adherent)
[1]
  AUC: 0.916
  IC50: > 20 µM
[2]
  AUC: 0.807
  IC50: 0.0289 µM
[3]
  AUC: 0.962
  IC50: > 20 µM
[4]
  AUC: 0.936
  IC50: > 10.2 µM
[5]; screen: GDSC drug entry 1036
  AUC: 0.912
  IC50: > 10 µM
[5]; [6]
  AUC: 0.911
  IC50: > 10 µM

## SBC-3 (small cell lung carcinoma, adherent)
[1]
  AUC: 0.847
  IC50: 12.7 µM
[2]
  AUC: 0.454
  IC50: 0.00151 µM
[3]
  AUC: 0.881
  IC50: 17.7 µM
[4]
  AUC: 0.274
  IC50: 0.157 µM
[5]; screen: GDSC drug entry 1036
  AUC: 0.955
  IC50: > 10 µM
[5]; [6]
  AUC: 0.988
  IC50: > 10 µM

## SBC-5 (small cell lung carcinoma, adherent)
[1]
  AUC: 0.977
  IC50: > 20 µM
[2]
  AUC: 0.385
  IC50: 0.00103 µM
[3]
  AUC: 0.991
  IC50: > 20 µM
[4]
  AUC: 0.993
  IC50: > 10.2 µM
[5]; screen: GDSC drug entry 1036
  AUC: 0.993
  IC50: > 10 µM
[5]; [6]
  AUC: 0.993
  IC50: > 10 µM

## SCC-4 (head and neck, adherent)
[1]
  AUC: 0.926
  IC50: > 20 µM
[2]
  AUC: 0.413
  IC50: 0.0011 µM
[3]
  AUC: 0.977
  IC50: > 20 µM
[4]
  AUC: 0.962
  IC50: > 10.2 µM
[5]; [6]
  AUC: 0.969
  IC50: > 10 µM

## SCC-9 (head and neck, adherent)
[1]
  AUC: 0.731
  IC50: 6.94 µM
[2]
  AUC: 0.909
  IC50: > 0.032 µM
[3]
  AUC: 0.971
  IC50: > 20 µM
[4]
  AUC: 0.631
  IC50: 1.63 µM
[5]; screen: GDSC drug entry 1036
  AUC: 0.952
  IC50: > 10 µM
[5]; [6]
  AUC: 0.942
  IC50: > 10 µM
